Screen size: about 110,000 compounds; about 230 (0.21%) showed an effect of 50% or more. The list shows a part of the results.
Target: DPAP1 (Plasmodium falciparum, UniProt Q8IIJ9)
Test: primary screen, percent inhibition; read by cleavage of a fluorogenic dipeptide substrate; higher = more effect of the substance
Set-up: species or system P. falciparum D10 trophozoite lysates; single well
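Further: 30 min substrate incubation versus DMSO and 10 µM JCP410 controls.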

Chain of DPAP1 (Q8IIJ9 whole entry, looked up): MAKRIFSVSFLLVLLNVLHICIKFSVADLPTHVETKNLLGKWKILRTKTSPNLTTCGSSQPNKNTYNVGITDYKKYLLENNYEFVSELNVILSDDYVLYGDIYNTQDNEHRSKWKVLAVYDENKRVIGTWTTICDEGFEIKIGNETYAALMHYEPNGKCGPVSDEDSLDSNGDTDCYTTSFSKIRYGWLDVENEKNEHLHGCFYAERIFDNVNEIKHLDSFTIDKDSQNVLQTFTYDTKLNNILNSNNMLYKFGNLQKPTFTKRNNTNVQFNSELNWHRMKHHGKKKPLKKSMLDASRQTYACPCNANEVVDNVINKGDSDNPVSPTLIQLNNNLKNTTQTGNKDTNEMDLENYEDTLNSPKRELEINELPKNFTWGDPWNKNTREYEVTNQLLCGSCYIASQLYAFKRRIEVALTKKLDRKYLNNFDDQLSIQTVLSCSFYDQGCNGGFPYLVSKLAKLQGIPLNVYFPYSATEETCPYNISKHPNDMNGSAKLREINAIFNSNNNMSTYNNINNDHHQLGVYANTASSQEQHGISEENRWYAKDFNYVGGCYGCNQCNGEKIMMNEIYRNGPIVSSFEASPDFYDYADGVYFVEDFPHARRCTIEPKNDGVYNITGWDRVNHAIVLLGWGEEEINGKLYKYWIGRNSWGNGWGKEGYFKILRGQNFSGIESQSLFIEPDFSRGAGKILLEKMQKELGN

Going from `O=c1c(Cl)c(NCCN2CCOCC2)cnn1C12CC3CC(CC(C3)C1)C2` to `CCCn1c2c(c(O)c(C(=O)Nc3nc(C45CC6CC(CC(C6)C4)C5)cs3)c1=O)CCCC2`, the “% Inhibition @ 10 uM” value falls from 3.32% to 2.8%.

Compared with `Cc1nc(C23CC4CC(CC(C4)C2)C3)co1`, `c1ccc(CCN2CCC(NC3C4CC5CC(C4)CC3C5)CC2)cc1` (stereo not shown) is higher in “% Inhibition @ 10 uM” value: -0.0369% for the first, 0.0792% for the second.

First: Cc1cccc(-c2nnc(-c3ccncc3)o2)c1
Second: Cc1ccc(C(=O)Nc2ccc(S(=O)(=O)Nc3ncccn3)cc2)o1
The “% Inhibition @ 10 uM” value of the first is lower: 1.54% for the first, 2.08% for the second.

Compared with `O=C(Cn1cccc1C(=O)c1ccccc1)NCc1ccc2c(c1)OCO2`, `CC(C)Cn1cc(C(=O)NCc2ccc3c(c2)OCO3)c2c3ccccc3n(C)c2c1=O` is lower in “% Inhibition @ 10 uM” value: -2.25% for the first, -3.12% for the second.

Going from `O=[N+]([O-])c1ccc(Cn2nc(-c3ccccc3)nc2-c2ccccc2)cc1` to `CCC1=NC(c2ccccc2)(c2ccccc2)c2ccccc2O1`, the “% Inhibition @ 10 uM” value rises from -2.72% to 5.66%.

Going from `Cc1ccc(S(=O)(=O)N(CCc2ccccc2)CC(=O)Nc2cccc(C)c2)cc1` to `Cc1ccc(S(=O)(=O)N(CCC(C)(C)c2ccccc2)CC(=O)O)cc1`, the “% Inhibition @ 10 uM” value falls from 1.1% to -5.46%.

Going from `CC(CCc1ccccc1)NC(=O)Cn1ncn2c(cc3cc(F)ccc32)c1=O` (stereo not shown) to `Cn1c(C(=O)NCCCc2ccccc2)cc2oc3ccccc3c21`, the “% Inhibition @ 10 uM” value rises from -5.32% to -0.281%.

Compared with `CCOc1ccc(C2C3=C(O)CCCC3=NC(C)=C2C(=O)Nc2ccccn2)cc1` (stereo not shown), `CSc1ccc(C2C3=C(O)CCCC3=NC3=C2C(=O)CCC3)cc1` (stereo not shown) is higher in “% Inhibition @ 10 uM” value: -2.16% for the first, 0.673% for the second.

Going from `CC1CCN(c2c(NCc3ccc(C(=O)N4CCn5c4nc4ccccc45)cc3)c(=O)c2=O)CC1` to `COc1cccc(S(=O)(=O)NCc2ccc(C(=O)N3CCN(Cc4ccccc4)CC3)cc2)c1`, the “% Inhibition @ 10 uM” value falls from 2.76% to 0.795%.

First: Cc1ccccc1NC(=O)CN(C1CCCCC1)S(C)(=O)=O
Second: O=C(C1CCN(S(=O)(=O)c2ccccc2)CC1)N1CCCCCC1
The “% Inhibition @ 10 uM” value of the first is lower: -1.89% for the first, 0.147% for the second.

Going from `OCCN(CCO)Cc1ccc(F)c(Br)c1` to `CC(C)NC(=O)CSCc1cccc(Br)c1`, the “% Inhibition @ 10 uM” value falls from 3.82% to -5.47%.

Going from `Cc1cc2oc(C(=O)Nc3nonc3C)c(C)c2cc1Cl` to `Cc1nc2ccccc2c2oc(C(=O)NCCc3ccc(Cl)cc3)cc12`, the “% Inhibition @ 10 uM” value falls from 3.51% to 1.62%.

Going from `O=C(CCCn1c2ccccc2c2cnnc(O)c21)NCc1ccc2c(c1)OCO2` to `COc1ccc(CNC(=O)c2cc(-c3ccccc3O)on2)cc1`, the “% Inhibition @ 10 uM” value falls from 4.55% to -3.77%.

Going from `CCOc1ccc2ccccc2c1CNCCSc1nnnn1C` to `Cn1ncc2c(NCCc3c[nH]c4ccccc34)ncnc21`, the “% Inhibition @ 10 uM” value falls from 3.27% to -0.587%.

Going from `N=C(N)SCCCc1nc2ccccc2[nH]1` to `CCCCCC(=O)Nc1cccc2cccnc12`, the “% Inhibition @ 10 uM” value falls from 2.05% to -2.98%.

Compared with `O=C(Cn1cc2c(n1)CCCC2)NCc1cccnc1`, `CCC(=O)c1cn(CC(=O)NCC2CCCO2)c2ccccc12` (stereo not shown) is lower in “% Inhibition @ 10 uM” value: 1.8% for the first, -3.13% for the second.

Going from `Cc1cc(C)c(S(=O)(=O)NCC(=O)NCc2ccco2)c(C)c1` to `CCOC(=O)c1cc(-c2ccccc2)n(-c2ccc(C(=O)NCc3ccco3)cc2)c1C`, the “% Inhibition @ 10 uM” value falls from -2.51% to -3.64%.

First: CCOc1cc(C(=O)NCc2nc(-c3ccc(OC)cc3)no2)cc(OCC)c1OCC
Second: COc1ccc(C(=N)NOC(=O)c2ccc(C)c(C)c2)cc1
The “% Inhibition @ 10 uM” value of the first is lower: -2.99% for the first, 2.25% for the second.

Going from `CC1(C)CC(=O)C2=C(C1)NC(=O)CC2c1ccc(Cl)cc1` (stereo not shown) to `CCCSc1nc2c(c(=O)[nH]c(=O)n2C)n1Cc1ccc(Cl)cc1`, the “% Inhibition @ 10 uM” value falls from 4.38% to -6.36%.

Going from `Clc1ccccc1OCc1nn2cnnc2s1` to `COc1c(Cl)cc(Cl)cc1C(=O)Nc1ccccc1O`, the “% Inhibition @ 10 uM” value falls from 3.88% to 2.27%.

Going from `CC(C)(C)NC(=O)/C(=C/c1ccc(-c2ccc([N+](=O)[O-])cc2)o1)NC(=O)c1ccccc1` to `O=C(O)/C(=C/c1ccccc1F)NC(=O)c1ccccc1`, the “% Inhibition @ 10 uM” value falls from 2.41% to -2.2%.

Going from `COc1cc(CN2CCN(Cc3cccc(Cl)c3)CC2)cc2c1OCO2` to `COc1ccc(Br)cc1CN1CCN(C(=O)c2ccncc2)CC1`, the “% Inhibition @ 10 uM” value falls from 3.1% to 2.73%.

First: Cc1ccc(S(=O)(=O)NC(Cc2ccccc2)C(=O)O)cc1 (stereo not shown)
Second: O=C(O)c1ccccc1NS(=O)(=O)c1ccc(F)c(Cl)c1
The “% Inhibition @ 10 uM” value of the first is higher: 0.035% for the first, -1.17% for the second.

Compared with `COc1ccc(C2=NN(C(=O)c3cc(OC)c(OC)c(OC)c3)C(c3ccc(F)cc3)C2)cc1OC` (stereo not shown), `COc1ccc(NC(=O)c2cnn3c2NC(c2ccc(F)cc2)CC3C(F)(F)F)c(OC)c1` (stereo not shown) is higher in “% Inhibition @ 10 uM” value: 0.131% for the first, 7.06% for the second.

Going from `COc1ccc(CN2CCN(C3CC4CCC3C4)CC2)c(OC)c1` (stereo not shown) to `Cc1ccc2onc(CNC(=O)N3CCN(C4CCCCC4)CC3)c2c1`, the “% Inhibition @ 10 uM” value rises from -2.87% to 2.99%.

First: Fc1cccc(F)c1CNCC1NCCc2ccccc21 (stereo not shown)
Second: O=C1c2[nH]nc(-c3ccccc3O)c2C(c2ccccc2F)N1CCO (stereo not shown)
The “% Inhibition @ 10 uM” value of the first is lower: -6.35% for the first, 3.62% for the second.

Compared with `COc1ccc(/C=N/c2nc(-c3ccc(Cl)cc3)c(C)s2)cc1`, `COc1ccc(-c2[nH]c3ccccc3c2SCCNC(=O)c2ccco2)cc1` is lower in “% Inhibition @ 10 uM” value: 4.97% for the first, -6.5% for the second.

Compared with `O=C(Nc1ccc(F)c(F)c1)c1ccc2c(c1)OCO2`, `CCCCOc1ccc(C(=O)NC(C)C2COc3ccccc3O2)cc1OC` (stereo not shown) is higher in “% Inhibition @ 10 uM” value: -1.54% for the first, 5.53% for the second.

Compared with `CCCCC(=O)Nc1nn2c(C(C)C)nnc2s1`, `Cc1ccc(OCC(=O)Nc2nccs2)c(C)c1` is higher in “% Inhibition @ 10 uM” value: 2.81% for the first, 3.24% for the second.

Compared with `CC1(C)Cc2c(c(N3CCOCC3)nc3sc(C(=O)c4ccccc4)c(N)c23)CO1`, `CCCN1CCN(c2ncnc3scc(-c4ccccc4)c23)CC1` is higher in “% Inhibition @ 10 uM” value: -12.2% for the first, 0.219% for the second.

Compared with `COC(=O)c1ccc(CSc2nnc(CNC(=O)c3c(F)cccc3Cl)o2)o1`, `Cc1cc(OCC(=O)NCc2ccc(F)cc2)ccc1Cl` is higher in “% Inhibition @ 10 uM” value: -1.58% for the first, 6.65% for the second.

Compared with `CCc1c(N2CCCCC2)nc2n(c1=O)CCS2`, `O=c1oc2ccccc2c2c1ncn2C1CCCCC1` is lower in “% Inhibition @ 10 uM” value: 0.347% for the first, -5.65% for the second.

First: COc1ccc(OCC(O)Cn2c(N3CCOCC3)nc3c2c(=O)[nH]c(=O)n3C)cc1 (stereo not shown)
Second: C=CCn1c(Sc2nc(C)cs2)nc2c1c(=O)[nH]c(=O)n2C
The “% Inhibition @ 10 uM” value of the first is higher: 3.34% for the first, 2.41% for the second.

Compared with `COc1cccc2cc(-c3nc4cc5ccccc5cc4[nH]3)c(=O)oc12`, `COc1cc(CNc2ccc3[nH]c(O)nc3c2)ccc1OCc1cccs1` is higher in “% Inhibition @ 10 uM” value: 2.33% for the first, 4.76% for the second.

First: O=S(=O)(c1ccc(-c2ccc(O)nn2)o1)N1CCC2(CC1)OCCO2
Second: COc1ccccc1C(=O)N1CCN(S(=O)(=O)c2ccc(Cl)cc2)CC1
The “% Inhibition @ 10 uM” value of the first is higher: -5.77% for the first, -7.18% for the second.

Compared with `C=CCn1c(SCCCCC)nc2c1c(=O)n(C)c(=O)n2C`, `CC1CN(Cc2nc3c(c(=O)n(C)c(=O)n3C)n2Cc2cccc3ccccc23)CC(C)O1` (stereo not shown) is higher in “% Inhibition @ 10 uM” value: -6.36% for the first, 1.23% for the second.

First: O=C(Nc1cnc(O)nc1O)c1cccc(Br)c1
Second: CCC(=O)/N=C(\NC(=O)CC)Nc1nc(C)c2cc(OC)ccc2n1
The “% Inhibition @ 10 uM” value of the first is higher: 0.685% for the first, -1.44% for the second.

First: N#CCc1ccc(NC(=O)c2ccc(C3SCC(=O)N3CCc3ccccc3)cc2)cc1 (stereo not shown)
Second: CCCCNC(=O)C1Sc2nnc(-c3ccccc3)n2NC1c1ccc(C)cc1 (stereo not shown)
The “% Inhibition @ 10 uM” value of the first is lower: -0.884% for the first, 1.72% for the second.

Going from `CCS[C@@H]1O[C@H](CO)[C@@H](OCc2ccccc2)[C@H](OCc2ccccc2)[C@H]1OCc1ccccc1` to `Cc1ccc(N2C(=O)C3ON(c4ccccc4)C(c4ccco4)C3C2=O)cc1` (stereo not shown), the “% Inhibition @ 10 uM” value falls from 2.17% to -2.53%.

Compared with `Cc1cccc(NS(=O)(=O)c2ccc(NC(=O)CN(c3cccc(F)c3)S(C)(=O)=O)cc2)c1`, `COc1ccc(N(CC(=O)Nc2cc(Cl)cc(Cl)c2)S(C)(=O)=O)c(OC)c1` is lower in “% Inhibition @ 10 uM” value: -0.473% for the first, -2.05% for the second.

Going from `O=C(C1COc2ccccc2O1)N1CCNCC1` (stereo not shown) to `Cc1ccc(C2C(=O)N(C3CCCC3)CC(=O)N2CC2COc3ccccc3O2)cc1` (stereo not shown), the “% Inhibition @ 10 uM” value falls from -1.64% to -5.92%.

Compared with `O=C(Nc1ccccc1)Nc1cc(Cl)cc(Cl)c1`, `O=S1(=O)C[C@@H](O)[C@H](Nc2ccccc2)C1` is higher in “% Inhibition @ 10 uM” value: -0.414% for the first, 0.132% for the second.

Going from `O=C1C(=Cc2ccc(Br)o2)C(=O)c2ccccc21` to `O=S(=O)(NCc1ccccc1Cl)c1ccc(-c2cc(C(F)(F)F)no2)s1`, the “% Inhibition @ 10 uM” value rises from -0.178% to 4.55%.

First: Cn1c2ccccc2c2c(C(=O)NCCCN3CCc4ccccc4C3)cn(C3CCCC3)c(=O)c21
Second: CCOCCCNC(=O)Cn1ncc2c(C)n(Cc3ccccc3F)c(C)c2c1=O
The “% Inhibition @ 10 uM” value of the first is lower: -3.39% for the first, -2.17% for the second.

Going from `CC(=O)N(C)c1ccc(NC(=O)COc2ccc(Cl)cc2Cl)cc1` to `CCCCN(C)C(=O)/C(=C/c1cn(CC)c2ccccc12)NC(=O)c1ccc(C)cc1`, the “% Inhibition @ 10 uM” value falls from 5.63% to -7.27%.

First: C=CCN(CC=C)C(=O)Nc1ccc2nc(C)sc2c1
Second: O=C(Nc1cccc(NC(=O)c2ccco2)n1)c1ccco1
The “% Inhibition @ 10 uM” value of the first is higher: 6.63% for the first, 3.56% for the second.

Going from `Cn1c(CNc2ccccc2O)nc2ccccc21` to `Cn1ccnc1C(O)(c1ccccc1)c1nccn1C`, the “% Inhibition @ 10 uM” value rises from -4.98% to 1.43%.

Going from `CC(=O)N1CCC(N2CCN(CCO)CC2)CC1` to `CC(C)=CCCCCCCN1CCCCC1CCO` (stereo not shown), the “% Inhibition @ 10 uM” value falls from -3.8% to -6.62%.

First: CC1(C)[C@H]2CC=C(CN3CCCC3CO)[C@@H]1C2 (stereo partly shown)
Second: CCOc1ccc(C2C3=C(O)CC(C)(C)CC3=Nc3ncnn32)cc1OC (stereo not shown)
The “% Inhibition @ 10 uM” value of the first is higher: -3.5% for the first, -7.08% for the second.

Going from `CC(C)C[C@H](NC(=O)[C@H](CC(C)C)NC(=O)c1ccc(-c2csc(N=C(N)N)n2)cc1)C(=O)O` to `C=CCOc1ccc(/C=C2\SC(=O)N(Cc3ccc(F)cc3)C2=O)cc1`, the “% Inhibition @ 10 uM” value falls from -3.04% to -7.18%.

Reference: publication PMC6919601, “Identification of Plasmodium dipeptidyl aminopeptidase allosteric inhibitors by high throughput screening” (PLoS ONE, 2019)
